Measured values taken from PubChem BioAssay AID1347165 (National Center for Advancing Translational Sciences (NCATS), 2019).
The whole screen tested about 220,000 compounds, of which about 5,700 (2.6%) were called active. Inconclusive results, whose numbers are uncertain, are shown with a selection of clear calls. Calls come from the whole dose curve; as a rule, active = well fitted inhibition curve with a large enough effect; inconclusive = small, poorly fitted or top-dose-only effect; inactive = no such curve, though single readings can be large or run the other way. A potency beside an inconclusive call is a rough fit, not a confirmed value.

Target: Lysine-specific demethylase 5B (Homo sapiens) (UniProt Q9UGL1)
Test: Primary screen for KDM5B Histone Demethylases FDH-coupled qHTS; note: nearly all actives have a fitted effect of over 70% in size
Conditions: FDH-coupled NADH fluorescence (FDH is formaldehyde dehydrogenase); series mostly up to 57.7 µM
In short: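 qHTS format, multiple compound concentrations. Buffer 50 mM HEPES pH 7.5/0.01% Tween-20; 200 nM KDM5BΔAP final; 10 min compound preincubation; substrate-mix levels 12.5 µM peptide, 25 µM α-KG, 0.25 mM NAD⁺; 30 min RT; ΔRFU.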
Potency is the fitted concentration of half-maximal effect; tags give direction and shape of the fitted curve.

Chain of UniProt Q9UGL1 (Q9UGL1 whole entry, looked up): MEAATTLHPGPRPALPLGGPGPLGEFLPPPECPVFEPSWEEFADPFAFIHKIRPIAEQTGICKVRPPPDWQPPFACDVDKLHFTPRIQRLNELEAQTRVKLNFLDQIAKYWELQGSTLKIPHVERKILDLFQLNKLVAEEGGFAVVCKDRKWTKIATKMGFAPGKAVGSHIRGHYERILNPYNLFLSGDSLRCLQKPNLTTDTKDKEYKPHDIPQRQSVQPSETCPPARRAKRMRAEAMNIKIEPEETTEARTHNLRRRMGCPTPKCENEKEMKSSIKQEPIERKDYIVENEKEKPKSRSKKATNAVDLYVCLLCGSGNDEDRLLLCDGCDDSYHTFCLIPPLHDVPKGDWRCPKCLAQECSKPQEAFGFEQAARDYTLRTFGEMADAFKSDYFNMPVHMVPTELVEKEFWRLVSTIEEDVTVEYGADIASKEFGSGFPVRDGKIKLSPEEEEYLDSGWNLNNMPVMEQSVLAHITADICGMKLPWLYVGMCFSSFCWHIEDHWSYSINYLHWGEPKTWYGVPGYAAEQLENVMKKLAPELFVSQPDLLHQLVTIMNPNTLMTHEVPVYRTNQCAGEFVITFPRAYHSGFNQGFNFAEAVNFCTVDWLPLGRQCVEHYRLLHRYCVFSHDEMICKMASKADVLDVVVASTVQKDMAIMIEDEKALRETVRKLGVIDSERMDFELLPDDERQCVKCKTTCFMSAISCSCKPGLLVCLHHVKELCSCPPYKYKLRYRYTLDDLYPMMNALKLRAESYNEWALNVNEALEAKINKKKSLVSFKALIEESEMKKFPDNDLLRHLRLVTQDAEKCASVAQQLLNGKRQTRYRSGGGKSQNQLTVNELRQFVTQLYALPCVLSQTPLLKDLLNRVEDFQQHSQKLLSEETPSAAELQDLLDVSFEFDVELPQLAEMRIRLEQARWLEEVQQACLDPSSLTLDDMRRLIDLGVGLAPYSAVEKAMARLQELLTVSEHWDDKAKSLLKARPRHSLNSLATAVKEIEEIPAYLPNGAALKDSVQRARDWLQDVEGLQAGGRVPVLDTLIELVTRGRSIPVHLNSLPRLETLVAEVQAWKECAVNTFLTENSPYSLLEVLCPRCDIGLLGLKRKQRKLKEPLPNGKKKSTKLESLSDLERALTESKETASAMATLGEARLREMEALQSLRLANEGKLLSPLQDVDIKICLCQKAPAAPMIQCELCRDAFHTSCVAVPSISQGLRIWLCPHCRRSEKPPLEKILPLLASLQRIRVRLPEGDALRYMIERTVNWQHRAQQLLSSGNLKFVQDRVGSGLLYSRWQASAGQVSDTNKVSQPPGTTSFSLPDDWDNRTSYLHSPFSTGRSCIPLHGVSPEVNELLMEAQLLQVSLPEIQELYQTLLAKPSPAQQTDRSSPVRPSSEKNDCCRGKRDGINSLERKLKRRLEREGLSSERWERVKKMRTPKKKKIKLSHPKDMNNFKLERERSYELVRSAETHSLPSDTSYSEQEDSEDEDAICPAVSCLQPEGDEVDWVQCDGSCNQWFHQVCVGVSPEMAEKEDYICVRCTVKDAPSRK

SMILES | Potency
O=C(NCc1ccc(CN2CCCC2)cc1)c1cc(C2CC2)nc2ccccc12 | inconclusive: 28.2 µM [inhibitor, single point]
COc1ccc(CC(=O)Nc2nnc3n2CCS3)cc1OC | inconclusive: 7.94 µM [inhibitor, partial curve, poor fit]
COc1ccc(CNC(=O)CCc2c(C)nc3c4cccnc4nn3c2C)cc1 | inconclusive: 31.6 µM [inhibitor, partial curve, poor fit]
COc1ccc(C)cc1-n1c(SCC(=O)NCc2ccco2)nc2c([nH]c3ccccc32)c1=O | inconclusive: 12.6 µM [inhibitor, partial curve, poor fit]
Cc1ccc(-c2nc(-c3cccs3)c(-c3cccs3)[nH]2)cc1 | inconclusive: 31.6 µM [inhibitor, partial curve, poor fit]
CCOC(=O)c1[nH]c(C)c(C(=O)OCc2ccc(C(N)=O)cc2)c1C | inactive
O=C(NC1CCCCCC1)C1CC(=O)N(c2n[nH]c3cccc(F)c23)C1 (stereo unspecified) | active: 31.6 µM
Cc1ccc(S(=O)(=O)c2nnn3c2nc(NC2CCCCC2)c2sccc23)cc1C | inconclusive: 25.1 µM [inhibitor, partial curve, poor fit]
Cc1c(C(=O)Nc2ccccc2F)sc2nc3n(c(=O)c12)CCC3 | inconclusive: 35.5 µM [inhibitor, single point]
CCCCc1nn(CC(=O)N2CCN(c3ccccn3)CC2)c(=O)n1CC | inconclusive: 31.6 µM [inhibitor, partial curve, poor fit]
Cc1cc(C)cc(OCC(=O)N(Cc2ccco2)Cc2ccccc2Cl)c1 | inconclusive: 1.78 µM [inhibitor, partial curve, poor fit]
O=C1[C@@H]2C[C@@H](CN2Cc2cnc3ccccc3c2)Oc2ccccc2N1CC1CC1 | active: 44.7 µM
CC(=O)Oc1c(-c2ccc(NC(=O)c3ccco3)cc2)c(-c2cccc(F)c2)nn1-c1ccc(C)cc1 | inconclusive: 39.8 µM [inhibitor, single point]
COc1ccc(CN2Cc3[nH]nc(-c4ccc(N5CCN(C)CC5)cc4)c3CC2=O)cc1 | inconclusive: 35.5 µM [inhibitor, partial curve, poor fit]
Cc1ccc(NC(=O)c2nc(S(C)(=O)=O)ncc2N(Cc2ccco2)Cc2ccco2)cc1 | inconclusive: 22.4 µM [inhibitor, partial curve, poor fit]
COc1ccc(OC)c(NC(=O)N2CCC3(CC2)Oc2ccccc2C(=O)N3Cc2ccccc2F)c1 | inconclusive: 25.1 µM [inhibitor, single point]
